# In the supplement of paper PMC3334620:
# Over roughly 33,000 sequences, “E-score (-0.5 to 0.5)” has its median near -0.041; the highest 2% begin near 0.37. The list shows a part of the results.
# Target: T1, Ecm22 (UniProt Q05958)
# T1 sequence: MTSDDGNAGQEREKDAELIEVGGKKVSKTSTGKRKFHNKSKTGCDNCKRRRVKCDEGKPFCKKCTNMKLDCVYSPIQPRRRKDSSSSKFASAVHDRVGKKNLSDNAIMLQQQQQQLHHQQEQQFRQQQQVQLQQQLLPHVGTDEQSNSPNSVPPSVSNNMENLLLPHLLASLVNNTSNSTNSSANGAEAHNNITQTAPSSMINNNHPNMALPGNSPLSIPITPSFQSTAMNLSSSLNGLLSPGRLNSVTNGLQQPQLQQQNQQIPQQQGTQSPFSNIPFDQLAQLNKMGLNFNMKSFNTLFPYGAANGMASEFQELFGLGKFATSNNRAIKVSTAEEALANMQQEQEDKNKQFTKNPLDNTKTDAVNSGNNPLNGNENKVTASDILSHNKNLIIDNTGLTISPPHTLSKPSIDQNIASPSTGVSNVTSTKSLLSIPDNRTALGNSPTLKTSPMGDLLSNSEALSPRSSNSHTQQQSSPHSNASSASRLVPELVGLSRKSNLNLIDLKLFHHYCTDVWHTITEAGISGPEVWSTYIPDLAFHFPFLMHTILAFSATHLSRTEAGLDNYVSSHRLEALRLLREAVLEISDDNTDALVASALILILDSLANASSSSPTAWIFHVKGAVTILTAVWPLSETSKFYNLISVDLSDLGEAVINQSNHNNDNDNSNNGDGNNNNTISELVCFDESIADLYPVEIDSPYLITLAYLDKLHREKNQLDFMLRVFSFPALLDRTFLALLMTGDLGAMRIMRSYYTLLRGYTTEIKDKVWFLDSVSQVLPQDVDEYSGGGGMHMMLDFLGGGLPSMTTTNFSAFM
# Experiment: PBM E-score (8-mer binding enrichment) (E-score (-0.5 to 0.5)); higher = stronger / more preferred TF binding; most listed sequences are background and not binding sites
# Details: protein concentration: 200 nM; construct: GST-full length
# Method in brief: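 Masliner-normalised scans of fluorescent anti-GST signal were the basis for scoring. That signal came from GST-tagged yeast transcription factors applied at about 100-200 nM to double-stranded universal all-10-mer Agilent arrays on fresh or once-stripped slides. Each ungapped eight-base word, pooled with its reverse complement, received an E-score from the Universal PBM Analysis Suite.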
row,Sequence,PBM E-score
1,CATCCGTA,0.327
2,CCGCCAAG,-0.193
3,CACACGTG,-0.154
4,GAGCACCA,-0.0179
5,ACAAGACG,-0.147
6,CGCCTGGC,-0.243
7,AGAAACTG,0.0432
8,CTCCTGCC,-0.203
9,GGCAATAA,-0.0967
10,CGAACTGC,0.119
11,CGACTTAA,-0.0319
12,TGTCGAAA,-0.0809
13,ATCTAGTG,-0.0611
14,AGTAAGGG,-0.25
15,GGTGGAGA,-0.15
16,CAATAGTG,-0.175
17,CAGATTGA,-0.181
18,CTGGTGAC,-0.157
19,GGAAAGCA,0.0846
20,GGCTCGCA,0.186
21,ACCCTGCC,-0.229
22,ATTGGAAG,-0.182
23,GCACAATA,-0.106
24,ATGTATCC,-0.11
25,GATGCGAA,0.271

row,Sequence,PBM E-score
1,CCGATTTA,0.0303
2,ACCTAAGA,0.0205
3,ATACCATG,0.0669
4,ACAAATCT,0.0933
5,AGGAATAA,-0.0874
6,GACGCCAA,-0.0883
7,AACGACAG,0.412
8,GAAGAGTA,-0.0021
9,CGGGAACA,0.165
10,CCAAGCTA,-0.182
11,AAATAGAG,-0.0589
12,CTCGGCAC,0.127
13,ACGTGTGG,-0.0452
14,CGTTCTGC,0.197
15,AAGGCTAC,-0.0731
16,AGTTGTGG,-0.00657
17,ACCAAGCC,-0.176
18,CCCAGAAA,-0.0859
19,GGGCAAAC,-0.0112
20,TAGCCGGA,0.0365
21,CCAACATC,-0.00898
22,AAACGAGC,0.482
23,ACACGTCT,-0.264
24,CTTGTACA,-0.0719
25,ATTCACCA,-0.162

row,Sequence,PBM E-score
1,CTACACCA,-0.128
2,AGTTTAAT,-0.052
3,TCTTGGCA,-0.102
4,AATCTAAG,0.0188
5,AAACCGCT,-0.0228
6,ACATGGTC,-0.0913
7,CCTGAGCC,-0.311
8,GCTCGTTA,0.373
9,ATATTAAC,0.18
10,ATAACAAC,0.0333
11,CTCGGACA,0.246
12,CTCTGCCA,-0.183
13,GCATACCC,-0.137
14,CAAACGTC,0.119
15,CCTAACTC,0.0132
16,GCAATCGC,0.0198
17,ATCTGATA,-0.128
18,ATTGTCTA,0.165
19,CGTAGGCA,0.0261
20,AATGGCTC,0.0478
21,CCACAATA,-0.0497
22,CTAATTGA,-0.0982
23,AACATACC,0.14
24,TCTCCGAA,0.0722
25,AGATTGAA,-0.147

row,Sequence,PBM E-score
1,ACAGGATA,0.115
2,TCATACCA,-0.0984
3,GCGGTAAA,0.173
4,CCCGCCCG,0.172
5,ACCTCCCC,-0.123
6,ACGCTCCA,0.021
7,ATACCTCC,-0.0991
8,ATCTCAAA,-0.0417
9,GCGACAAA,0.00659
10,ACACTGAA,0.0983
11,CAAGACTA,-0.187
12,CATGGGAG,-0.0986
13,TGTGGCAA,-0.0219
14,GACTCCAA,-0.154
15,GAACTGCA,-0.00253
16,GATATCAA,0.00995
17,CGCGGTAG,-0.0685
18,GCTACAGA,-0.121
19,CCTGACCA,-0.0624
20,CAGACTTA,-0.151
21,AGTAACAT,-0.0483
22,ATGGACGC,-0.117
23,AGACGTAG,-0.0478
24,AGGGCACA,-0.0681
25,GATCCTCA,-0.0376

row,Sequence,PBM E-score
1,AGCATGAT,-0.184
2,ATGCCAGC,-0.223
3,CAGTCTCA,-0.26
4,GGGATCCC,-0.0461
5,CGCGAACG,0.269
6,AGCTGACC,-0.243
7,CGGCCTCC,-0.0189
8,GAATAGGC,-0.0883
9,AAACGATC,0.423
10,ACCTACGC,-0.0909
11,AAGGCCGA,-0.0674
12,TGCCTGAA,-0.135
13,AATCTCCG,-0.0637
14,AGGAATAG,-0.117
15,CTCCGATC,-0.17
16,ACTCACAG,-0.253
17,CTCGGCCC,0.00167
18,GCTGGAAA,-0.217
19,CATTTCAA,-0.0917
20,GAGGCATA,0.0424
21,AGTGCTTC,-0.0125
22,AAAACTTC,0.052
23,GGGATGAA,-0.325
24,ACTACTGA,-0.0877
25,GAAGGTGA,-0.157

row,Sequence,PBM E-score
1,AGCATTAC,0.0473
2,ATCGCCTC,0.0614
3,ATAAACCA,-0.0402
4,AAAGTATC,0.0687
5,ACTGCCGG,-0.145
6,CTAACATC,-0.15
7,ACAAGGCT,-0.229
8,TACGTCGA,0.168
9,CCACCGCG,0.0904
10,TACTCCGA,-0.0941
11,AATCGTCC,0.0602
12,CCTGTCCA,-0.246
13,CCAGTGAG,-0.323
14,CCAGCCTC,-0.16
15,GCGTTGGA,-0.212
16,ATGAGCCC,-0.0731
17,CTCATTCA,-0.198
18,CATTATAC,0.237
19,AAACGGAC,0.307
20,GAGCCTGC,-0.0544
21,CTTAAGAA,-0.0446
22,AAGGCGCC,-0.037
23,TCATGTCA,-0.187
24,CCAAGTCC,-0.205
25,TAAAGCCA,0.0235

row,Sequence,PBM E-score
1,CTGGGATC,-0.215
2,GCCCGGAA,-0.0251
3,CAGAATAG,0.0984
4,ACGTCCTG,-0.131
5,GAAACGCC,0.0403
6,AGTTTCGG,0.118
7,TGCAGCAA,0.186
8,AGACAGGA,-0.0652
9,CCGGGGGA,-0.218
10,GAGGCATC,0.0852
11,ATCGCTGC,-0.119
12,ATGCAATG,-0.132
13,CAAGCTGA,-0.211
14,GATGTTGA,-0.191
15,CCCTGTGC,-0.0607
16,CTTCCTTA,-0.079
17,GGGGTTTA,-0.199
18,AAGGGGCA,-0.216
19,ACCCTACT,-0.215
20,GCACAACC,-0.0938
21,CTGATCTC,0.00531
22,CAAATCTC,0.0679
